Reference: article PMC4336329 (PLoS ONE, 2015)
Screen size: about 310,000 compounds; about 14,000 (4.5%) showed an effect of 50% or more. The effect is printed as a negative number. The list shows a part of the results.

Biological target: human ether-à-go-go-related gene (hERG) potassium channel (human, UniProt Q12809)
Assay: primary screen, population patch clamp on CHO cells stably expressing hERG
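Further: peak tail current of the secondary pulse compared with the same well before compound.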

human ether-à-go-go-related gene (hERG) potassium channel, sequence (Q12809 whole entry, looked up): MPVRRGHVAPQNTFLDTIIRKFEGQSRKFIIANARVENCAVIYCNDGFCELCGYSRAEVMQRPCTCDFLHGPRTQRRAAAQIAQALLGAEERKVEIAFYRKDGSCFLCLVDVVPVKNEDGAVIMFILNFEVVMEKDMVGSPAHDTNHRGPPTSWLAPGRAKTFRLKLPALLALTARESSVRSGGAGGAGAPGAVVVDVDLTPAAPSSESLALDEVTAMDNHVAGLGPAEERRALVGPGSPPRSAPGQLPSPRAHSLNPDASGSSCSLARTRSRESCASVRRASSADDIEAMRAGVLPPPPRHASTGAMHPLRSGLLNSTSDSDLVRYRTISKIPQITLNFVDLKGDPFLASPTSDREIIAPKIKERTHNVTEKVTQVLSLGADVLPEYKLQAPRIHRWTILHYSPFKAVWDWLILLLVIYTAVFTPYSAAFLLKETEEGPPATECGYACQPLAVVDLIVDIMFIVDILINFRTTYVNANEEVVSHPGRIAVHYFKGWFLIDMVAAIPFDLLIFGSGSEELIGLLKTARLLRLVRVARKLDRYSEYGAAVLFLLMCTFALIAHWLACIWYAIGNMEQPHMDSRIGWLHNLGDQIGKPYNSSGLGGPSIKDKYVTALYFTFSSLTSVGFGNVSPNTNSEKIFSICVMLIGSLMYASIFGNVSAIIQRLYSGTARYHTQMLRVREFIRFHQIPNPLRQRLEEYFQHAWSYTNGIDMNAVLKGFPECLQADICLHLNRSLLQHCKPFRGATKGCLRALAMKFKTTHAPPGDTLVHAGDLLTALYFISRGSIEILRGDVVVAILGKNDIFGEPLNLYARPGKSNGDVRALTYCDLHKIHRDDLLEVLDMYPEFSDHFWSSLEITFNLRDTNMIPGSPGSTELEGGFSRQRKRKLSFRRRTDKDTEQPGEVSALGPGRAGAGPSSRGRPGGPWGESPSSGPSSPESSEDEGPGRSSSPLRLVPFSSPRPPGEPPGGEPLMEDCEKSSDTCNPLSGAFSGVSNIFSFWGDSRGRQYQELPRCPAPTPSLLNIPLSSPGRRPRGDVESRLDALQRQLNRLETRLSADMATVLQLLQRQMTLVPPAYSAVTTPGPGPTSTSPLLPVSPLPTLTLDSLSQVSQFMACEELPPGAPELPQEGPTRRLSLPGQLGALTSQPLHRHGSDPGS

Row | Compound | hERG current change (%, negative = inhibition) at 10uM
1 | COc1ccc(C2CC(=O)CC(=O)C2n2cncn2)cc1 (centres unmarked) | 2.96%
2 | COc1ccc(N2CCN(C(=O)Cn3nnc(-c4cccs4)n3)CC2)cc1 | 13%
3 | CC(=O)NC1C(Oc2ccccc2C)OC2COC(c3ccco3)OC2C1O (centres unmarked) | 3.59%
4 | CCOC(=O)[C@@H]1[C@H]2COc3ccccc3[C@@H]2N2C(=O)N(c3cccc(Cl)c3)C(=O)[C@@]12C | -3.18%
5 | Cc1cccc(-n2nc(C)c3c(C(=O)O)cc(-c4cccs4)nc32)c1 | 9.13%
6 | Cc1ccc(OC(=O)c2cncc(Br)c2)c(C)c1 | 16%
7 | C=CCNC(=O)c1oc2ccc(S(=O)(=O)N(CC)CC)cc2c1C | -8.87%
8 | O=C(N/N=C/c1ccc(Br)o1)c1ccc2c(c1)OCCO2 | -8.89%
9 | Cc1onc(-c2c(F)cccc2Cl)c1C(=O)N1CCN(S(C)(=O)=O)CC1 | -0.786%
10 | O=C1C(C2=NC(c3ccccn3)C3C(=O)N(c4ccc(Cl)cc4Cl)C(=O)C23)=C(O)c2ccccc21 (centres unmarked) | -4.11%
11 | COc1ccccc1CNC(=O)CCC(=O)N1CC(C)Sc2ccccc21 (centres unmarked) | -11.9%
12 | O=C(NC(=S)NCc1ccco1)c1cccc(Cl)c1 | 5.4%
13 | O=C(NCc1ccccc1Cl)C(=O)NCC1OCCN1S(=O)(=O)c1cccs1 (centres unmarked) | -15%
14 | Cc1ncc([N+](=O)[O-])n1S(=O)(=O)c1cc(Br)ccc1Br | 14%
15 | Cc1cc(C(=O)OCC(=O)Nc2c(Cl)cccc2C(F)(F)F)c(C)o1 | 10.7%
16 | Cc1nn(CC(=O)Nc2ccc(S(=O)(=O)N(C)C)cc2)c(C)c1[N+](=O)[O-] | -5.89%
17 | COc1ccc(NC(=O)N2c3ccc(OC)cc3C(C)=CC2(C)C)cc1 | 20.1%
18 | CC(=O)c1ccc(N(CC(=O)NCc2ccc3c(c2)OCO3)C(=O)c2csnn2)cc1 | -20.5%
19 | CCOc1cccc(CN2CCC(Oc3ccc(C(=O)N4CCCC4)cc3)CC2)c1 | -27.4%
20 | Cc1nnsc1C(=O)N/N=C/c1c(F)cccc1Cl | 12.8%
21 | O=C(N/N=C/c1cccs1)c1ccc(-n2cccc2)cc1 | 21.4%
22 | CC(OC(=O)/C=C/c1cccs1)C(=O)NC1CCCCC1C (centres unmarked) | 12.2%
23 | COc1ccc(S(=O)(=O)NCCc2ccc(F)cc2)cc1 | -8.11%

Row | Compound | hERG current change (%, negative = inhibition) at 10uM
24 | O=C(O)C(=O)O.OC(CNCc1ccc(Cl)cc1)COc1ccccc1 (centres unmarked) | -41.9%
25 | COc1cccc(NC(=O)CSc2nnnn2C(C)C)c1 | 2.64%
26 | Cn1cccc1Cc1nnc(SCC(=O)NCC2CCCO2)n1C (centres unmarked) | 11.8%
27 | CN(Cc1nccs1)C(=O)C1CCC(=O)N(CCc2ccc(Cl)cc2)C1 (centres unmarked) | -81.5%
28 | Cc1cc(C(=O)CN2C(=O)NC(C)(c3cccc(Br)c3)C2=O)c(C)n1Cc1ccco1 (centres unmarked) | -10.4%
29 | O=C(NCCCc1ccccc1)c1ccccc1 | -1.81%
30 | CC1(C)C(=O)N(c2ccccc2F)C(=O)c2ccccc21 | 23%
31 | O=C(NC(c1ccccc1)C(Cl)Cl)c1ccccc1 (centres unmarked) | 9.95%
32 | COc1ccc(OC(=O)/C=C/c2ccc([N+](=O)[O-])cc2)cc1 | 17%
33 | Cc1ccccc1OCCC(=O)OCC(=O)Nc1c(C)nn(-c2ccccc2)c1C | 10.4%
34 | Cc1ccc(S(=O)(=O)N(C)CC(=O)OCC(=O)NC(=O)Nc2ccc3c(c2)OCCO3)cc1 | 13.7%
35 | CC(=O)Nc1cccc(N(C)C)c1 | 1.98%
36 | Cc1cc(N)n(-c2ccc(S(=O)(=O)N3CCOCC3)cc2[N+](=O)[O-])n1 | -25.3%
37 | CCC(CC)C(=O)Nc1c(C(=O)N2CCN(c3ccccc3)CC2)oc2ccccc12 | 3.17%
38 | O=C1C2C3C=CC(CNS(=O)(=O)c4ccccc4[N+](=O)[O-])(O3)C2C(=O)N1c1ccccc1 (centres unmarked) | -13.1%
39 | C=CCc1cccc2cc(C(=O)NCc3cccnc3)c(=O)oc12 | -27.5%
40 | O=C(c1ccc2[nH]ccc2c1)N1CCCC(Nc2ccccc2)C1 (centres unmarked) | -14.3%
41 | Cc1ccsc1C(=O)OCC(=O)N1CCOCC1 | 5.45%
42 | COC(=O)c1ccc(/C=C/c2c(-c3ccsc3)sc3ccccc23)cc1 | 24.4%
43 | COc1ccc(C)cc1NS(=O)(=O)c1ccc(-c2cnc(C3CC3)o2)cc1 | 0.824%
44 | CC(=O)c1ccc(OCC(=O)NCC(c2ccco2)N2CCCCC2)cc1 (centres unmarked) | -4.83%
45 | COc1ccc(NS(=O)(=O)c2ccc(N3CCCC3)c(N)c2)cc1 | 13.8%
46 | O=C(N/N=C/c1ccccc1OC(=O)c1ccc2c(c1)OCO2)c1cccc(F)c1 | 9.33%

Row | Compound | hERG current change (%, negative = inhibition) at 10uM
47 | C#CCNC(=O)[C@H](Cc1ccc(C(=O)c2ccccc2)cc1)NC(=O)OC(C)(C)C | 19.5%
48 | CN(/N=C/c1c[nH]c2ccccc12)c1cnn(-c2ccc(F)c(Cl)c2)c(=O)c1Cl | -5.66%
49 | Nc1nnc(-c2ccc(Cl)c(Cl)c2)s1 | 12.7%
50 | COc1ccc(O)c(/C=C(\C#N)C(=O)Nc2cccnc2)c1 | 3.74%
51 | O=C(COc1ccc2c3c(c(=O)oc2c1)CCCC3)NCCCN1CCCC1=O | -7.14%
52 | CCc1ccc(NC(=O)Cc2ccc(NC3=NC4CS(=O)(=O)CC4S3)cc2)cc1 (centres unmarked) | 13.5%
53 | O=S(=O)(Nc1cccnc1Cl)c1ccc(-c2ccccc2)cc1 | 16.3%
54 | CC(C)Cc1nnc(NC(=O)CCC(=O)NC2CC2)s1 | 21.9%
55 | C=CCN=C(NC#N)SCC(=O)NC(C)(C)C | 16.7%
56 | Cc1cccnc1NC(=O)c1ccc(NS(=O)(=O)c2ccc3[nH]c(=O)[nH]c3c2)cc1 | -5.89%
57 | Cc1nnc2sc(SCc3cccc(Cl)c3)nn2c1=O | -12.5%
58 | O=C(NCCc1c[nH]c2ccccc12)C1CCC(=O)N(CCc2cccc(F)c2)C1 (centres unmarked) | -15.2%
59 | C1CNCCN1.C[C@]12CC[C@@H]3c4ccc(OS(=O)(=O)O)cc4CC[C@H]3[C@@H]1CCC2=O | 18.3%
60 | Cc1ccc(C(=O)Oc2cccc(NC(=O)c3ccccc3)c2)cc1C | 19.2%
61 | O=C(COC(=O)c1cc(F)cc(F)c1)Nc1cccnc1Cl | 4.12%
62 | CCn1cc([N+](=O)[O-])c(C(=O)Nc2ccn(Cc3ccccc3F)n2)n1 | 0.594%
63 | COc1ccc(CC(=O)Nc2nc(-c3cccc([N+](=O)[O-])c3)cs2)cc1 | 0.13%
64 | O=C(NO)C1CC2C=CC1C2 (centres unmarked) | 7.64%
65 | O=C(Nc1cnc2ccccn2c1=O)c1ccc(F)cc1 | 5.59%
66 | Cc1ccc2c(c1)nnn2C1CCN(S(C)(=O)=O)CC1 | -37.1%
67 | O=c1[nH]c2c(s1)C(c1cccnc1)C1C3CCC(C3)C1S2 (centres unmarked) | -25.9%
68 | N#Cc1c2n(c3c(-c4ccccc4)ncnc13)CCC2 | 7.57%
69 | CC(=O)Nc1ccc(S(=O)(=O)N2CCN(S(=O)(=O)N3CCCCC3)CC2)cc1 | -1.31%

Row | Compound | hERG current change (%, negative = inhibition) at 10uM
70 | Cc1cccc(N=Cc2c(O)cc(C)oc2=O)c1 | 5.22%
71 | CCN1CCN(C(=O)c2cc3cc(Cl)ccc3[nH]2)CC1 | -59.8%
72 | COc1ccc(S(=O)(=O)N(C)CC(=O)NC2CC2)cc1OC | 7.62%
73 | Cc1ccc(OCC(=O)Nc2cccc(O)c2)cc1C | -1.17%
74 | O=C(N/N=C/c1c(O)n(Cc2ccco2)c(=O)[nH]c1=O)c1ccccc1O | 3.1%
75 | Cc1ccc(C)c(NC(=S)NC2CC3CCCC(C2)N3CC(C)C)c1 (centres unmarked) | -28.7%
76 | CCCCC(=O)Nc1ccc(C(=O)N2CCN(C)CC2)cc1 | 6.41%
77 | COc1ccc(-c2nnn(CC#N)n2)cc1OC | 14.6%
78 | CC(C)(C)c1nnc(NC(=O)Cc2ccc(Br)cc2)s1 | 10.9%
79 | O=C(O)CCn1nnc2ccccc21 | 13.3%
80 | Cc1ccc2cc(C3CC(c4cccs4)=NN3S(C)(=O)=O)c(Cl)nc2c1 (centres unmarked) | -9.76%
81 | COc1cccc(OCCNC(=O)c2ccccc2Sc2ccccc2C#N)c1 | 0.896%
82 | CSc1ccccc1NC(=O)c1cnc2n(c1=O)CCS2 | -1.14%
83 | CC1CC1C(=O)Nc1nc(-c2ccccn2)cs1 (centres unmarked) | 10.6%
84 | O=C(CSc1nc(=O)n2ccccc2n1)N1N=C(c2cccs2)CC1c1ccc(F)cc1 (centres unmarked) | -52.2%
85 | O=C(NCc1ccc(-c2nc3ccccc3s2)cc1)c1ccc(Br)o1 | 9.77%
86 | Cc1ccc(N=C(N(C)C)P(=O)(N(C)C)N(C)C)c(C)c1 | 5.12%
87 | CC(=O)C[C@H](O)CC(=O)[C@H]1OC(=O)CCCCCCCc2ccccc21 | 1.67%
88 | CC(=O)N1CCCN(Cc2cn(-c3cccc(C)c3)nc2-c2cccc(F)c2)CC1 | -16.9%
89 | COc1cccc(NC(=O)CCC(=O)N2CC(C)Oc3ccc(C)cc32)c1 (centres unmarked) | -17.1%
